In the antibiotic and cytotoxicity screens of Wong et al. (2023):
This is one part of the list.

System: HSkMC (human skeletal muscle cells)
Assay: cytotoxicity call (relative viability < 0.9)
Settings: 10 µM

Structure (SMILES) | cytotoxicity call
C[C@H]1CN([C@@H](C)CO)C(=O)Cc2cc(NC(=O)CCCCCC(=O)Nc3ccccc3N)ccc2O[C@H]1CN(C)Cc1ccc(-c2ccccc2)cc1 | inactive
COc1ccc(S(=O)(=O)N(C)C[C@H]2Oc3ccc(NC(=O)CCN4CCOCC4)cc3CC(=O)N([C@H](C)CO)C[C@H]2C)cc1 | inactive
COc1ccc(S(=O)(=O)Nc2ccc3c(c2)C(=O)N([C@H](C)CO)C[C@H](C)[C@@H](CN(C)Cc2ccc(Cl)c(Cl)c2)O3)cc1 | inactive
COc1ccc(S(=O)(=O)N(C)C[C@H]2Oc3c(NC(=O)C4CCOCC4)cccc3C(=O)N([C@H](C)CO)C[C@H]2C)cc1 | inactive
COc1ccc(NC(=O)N(C)C[C@@H]2Oc3ccc(NC(=O)Nc4cccc5ccccc45)cc3C(=O)N([C@@H](C)CO)C[C@H]2C)cc1 | inactive
C[C@H](O)C#Cc1ccc2c(c1)O[C@H](CN(C)C(=O)c1ccncc1)[C@H](C)CN([C@@H](C)CO)S2(=O)=O | inactive
Cc1noc(C)c1NC(=O)Nc1ccc2c(c1)CC(=O)N([C@@H](C)CO)C[C@H](C)[C@@H](CN(C)C(=O)Nc1cccc3ccccc13)O2 | inactive
